# Laboratory results published in the supplement of paper PMC8728848.
# The other results are listed elsewhere or left out.
# B1: Pbx1 (Cryptococcus neoformans) (protein)
# chain: ATTKCLVSGDQDSINNALALGGEGTTVTLCPGSVHRLNSSIIFTAPSQTLTTLGNPKDRNRAMLVVDGEDLACAIRADCKQCSHAMIRSLVIDGNRPQLLRIPKGDALIEVGNAESQTVRDCKLYEPRGWSALHFREGDERQCRFGHIVDNEIGPCGEEWDDEYDSMDETKPLWGNPRADGISLACKDSIVERNVVYDATDGAIVLFGSAGSTVKNNHVYARTRVILGGINLVDYEPWDGDYTNVKVHHNHLYALGRYFKVGIVIGPASWSDDTESVVHSASVTDNEFSGGYWGYGIVVASAKNFEVLRNKVIWDGEQGVARFSGVPGSRCPKAPENGKPTAFLINRGSAKGIFQDDFVNGEVQHIICLNPDQDPPYKPWRFRDSPEAIAAKQAENPTANSAFDSRIAEALVSYQMSLLNSMDAMTQKVEHLTNPIVDDALPFVHEHERAEADKKARQEASRKEKESGNKDVDMLNVKVEELEKSGRRLKKALDGLKSDFEGLSGRLKKSADENKPIIETIFVTSQNLLLGATSQQN
# Assays:
# Assay in all cases: glycan array binding signal (z-score within array); higher = stronger binding
# Details in all cases: glycan notation: IUPAC condensed, linker removed
# Fuc(a1-2)Gal = molecular target: Fuc(a1-2)Gal
# In short: (§1)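 Glycan array data came from 3228 arrays in the Consortium for Functional Glycomics database, and only arrays with an available protein sequence were kept. Glycan names were put into IUPAC-condensed notation, and columns mapping to the same glycan were averaged. The binding signal is a within-array Z-score, averaged across arrays of one protein sequence run at different concentrations or buffers and across linkers. A negative Z-score can be read as non-binding.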
# Fuc(a1-2)Gal(b1-3)GalNAc = molecular target: Fuc(a1-2)Gal(b1-3)GalNAc
# In short: as §1
# [1] = molecular target: Fuc(a1-2)Gal(b1-3)GalNAc(a1-3)[Fuc(a1-2)]Gal(b1-4)Glc
# In short: as §1
# [2] = molecular target: Fuc(a1-2)Gal(b1-3)GalNAc(a1-3)[Fuc(a1-2)]Gal(b1-4)GlcNAc
# In short: as §1
# [3] = molecular target: Fuc(a1-2)Gal(b1-3)GalNAc(b1-3)Gal
# In short: as §1
# [4] = molecular target: Fuc(a1-2)Gal(b1-3)GalNAc(b1-3)Gal(a1-4)Gal(b1-4)Glc
# In short: as §1
# [5] = molecular target: Fuc(a1-2)Gal(b1-3)GalNAc(b1-4)[Neu5Ac(a2-3)]Gal(b1-4)Glc
# In short: as §1
# Fuc(a1-2)Gal(b1-3)GlcNAc = molecular target: Fuc(a1-2)Gal(b1-3)GlcNAc
# In short: as §1
# [6] = molecular target: Fuc(a1-2)Gal(b1-3)GlcNAc(b1-2)Man(a1-3)[Fuc(a1-2)Gal(b1-3)GlcNAc(b1-2)Man(a1-6)]Man(b1-4)GlcNAc(b1-4)GlcNAc
# In short: as §1
# [7] = molecular target: Fuc(a1-2)Gal(b1-3)GlcNAc(b1-2)Man(a1-3)[Fuc(a1-2)Gal(b1-3)GlcNAc(b1-2)Man(a1-6)]Man(b1-4)GlcNAc(b1-4)[Fuc(a1-6)]GlcNAc
# In short: as §1
# [8] = molecular target: Fuc(a1-2)Gal(b1-3)GlcNAc(b1-3)Gal(b1-4)Glc
# In short: as §1
# [9] = molecular target: Fuc(a1-2)Gal(b1-3)GlcNAc(b1-3)GalNAc
# In short: as §1
# [10] = molecular target: Fuc(a1-2)Gal(b1-3)GlcNAc(b1-3)[Fuc(a1-2)Gal(b1-3)GlcNAc(b1-6)]GalNAc
# In short: as §1
# [11] = molecular target: Fuc(a1-2)Gal(b1-3)GlcNAc(b1-3)[Gal(b1-4)GlcNAc(b1-6)]Gal(b1-4)Glc
# In short: as §1
# [12] = molecular target: Fuc(a1-2)Gal(b1-3)GlcNAc(b1-3)[Neu5Ac(a2-6)Gal(b1-4)GlcNAc(b1-6)]Gal(b1-4)Glc
# In short: as §1
# [13] = molecular target: Fuc(a1-2)Gal(b1-3)GlcNAc6S
# In short: as §1
# [14] = molecular target: Fuc(a1-2)Gal(b1-3)[Fuc(a1-4)]GlcNAc
# In short: as §1
# [15] = molecular target: Fuc(a1-2)Gal(b1-3)[Fuc(a1-4)]GlcNAc(b1-2)Man(a1-3)[Fuc(a1-2)Gal(b1-3)[Fuc(a1-4)]GlcNAc(b1-2)Man(a1-3)]Man(b1-4)GlcNAc(b1-4)GlcNAc
# In short: as §1
# [16] = molecular target: Fuc(a1-2)Gal(b1-3)[Fuc(a1-4)]GlcNAc(b1-2)Man(a1-3)[Fuc(a1-2)Gal(b1-3)[Fuc(a1-4)]GlcNAc(b1-2)Man(a1-6)]Man(b1-4)GlcNAc(b1-4)[Fuc(a1-6)]GlcNAc(b1-4)[Fuc(a1-6)]GlcNAc
# In short: as §1
# [17] = molecular target: Fuc(a1-2)Gal(b1-3)[Fuc(a1-4)]GlcNAc(b1-3)[Fuc(a1-3)[Gal(b1-4)]GlcNAc(b1-6)]Gal(b1-4)Glc
# In short: as §1
# [18] = molecular target: Fuc(a1-2)Gal(b1-3)[Fuc(a1-4)]GlcNAc(b1-3)[Gal(b1-4)GlcNAc(b1-6)]Gal(b1-4)Glc
# In short: as §1
# Fuc(a1-2)Gal(b1-4)Glc = molecular target: Fuc(a1-2)Gal(b1-4)Glc
# In short: as §1
# Fuc(a1-2)Gal(b1-4)Glc6S = molecular target: Fuc(a1-2)Gal(b1-4)Glc6S
# In short: as §1
# Fuc(a1-2)Gal(b1-4)GlcNAc = molecular target: Fuc(a1-2)Gal(b1-4)GlcNAc
# In short: as §1
# [19] = molecular target: Fuc(a1-2)Gal(b1-4)GlcNAc(b1-2)Man
# In short: as §1
# [20] = molecular target: Fuc(a1-2)Gal(b1-4)GlcNAc(b1-2)Man(a1-3)[Fuc(a1-2)Gal(b1-4)GlcNAc(b1-2)Man(a1-6)]Man(b1-4)GlcNAc(b1-4)GlcNAc
# In short: as §1
# [21] = molecular target: Fuc(a1-2)Gal(b1-4)GlcNAc(b1-2)Man(a1-3)[Fuc(a1-2)Gal(b1-4)GlcNAc(b1-2)Man(a1-6)]Man(b1-4)GlcNAc(b1-4)[Fuc(a1-6)]GlcNAc
# In short: as §1
# [22] = molecular target: Fuc(a1-2)Gal(b1-4)GlcNAc(b1-2)[Fuc(a1-2)Gal(b1-4)GlcNAc(b1-4)]Man(a1-3)[Fuc(a1-2)Gal(b1-4)GlcNAc(b1-2)Man(a1-6)]Man(b1-4)GlcNAc(b1-4)GlcNAc
# In short: as §1
# [23] = molecular target: Fuc(a1-2)Gal(b1-4)GlcNAc(b1-3)Gal(b1-4)GlcNAc
# In short: as §1
# [24] = molecular target: Fuc(a1-2)Gal(b1-4)GlcNAc(b1-3)Gal(b1-4)GlcNAc(b1-2)Man(a1-3)[Fuc(a1-2)Gal(b1-4)GlcNAc(b1-3)Gal(b1-4)GlcNAc(b1-2)Man(a1-6)]Man(b1-4)GlcNAc(b1-4)GlcNAc
# In short: as §1
binder,measurement,setting,value
B1,glycan array binding signal (z-score),Fuc(a1-2)Gal,-0.619
same,glycan array binding signal (z-score),Fuc(a1-2)Gal(b1-3)GalNAc,-0.331
same,glycan array binding signal (z-score),[1],0.561
same,glycan array binding signal (z-score),[2],0.2
same,glycan array binding signal (z-score),[3],-0.1
same,glycan array binding signal (z-score),[4],-0.792
same,glycan array binding signal (z-score),[5],-0.657
same,glycan array binding signal (z-score),Fuc(a1-2)Gal(b1-3)GlcNAc,-0.46
same,glycan array binding signal (z-score),[6],0.459
same,glycan array binding signal (z-score),[7],0.209
same,glycan array binding signal (z-score),[8],-0.04
same,glycan array binding signal (z-score),[9],0.44
same,glycan array binding signal (z-score),[10],0.579
same,glycan array binding signal (z-score),[11],-0.938
same,glycan array binding signal (z-score),[12],-0.045
same,glycan array binding signal (z-score),[13],1.1
same,glycan array binding signal (z-score),[14],-0.161
same,glycan array binding signal (z-score),[15],2.82
same,glycan array binding signal (z-score),[16],0.05
same,glycan array binding signal (z-score),[17],-0.395
same,glycan array binding signal (z-score),[18],0.086
same,glycan array binding signal (z-score),Fuc(a1-2)Gal(b1-4)Glc,-0.305
same,glycan array binding signal (z-score),Fuc(a1-2)Gal(b1-4)Glc6S,-0.641
same,glycan array binding signal (z-score),Fuc(a1-2)Gal(b1-4)GlcNAc,-0.749
same,glycan array binding signal (z-score),[19],-0.654
same,glycan array binding signal (z-score),[20],-0.038
same,glycan array binding signal (z-score),[21],-0.297
same,glycan array binding signal (z-score),[22],0.821
same,glycan array binding signal (z-score),[23],-0.188
same,glycan array binding signal (z-score),[24],0.745
